Variants at the floor of the assay are shown more often than the library holds them.
B1: TPR 5TU (parent)
chain: GGAUCUUCUCGAUCUAACAAAAAAGACAAAUCUGCCACAAAGCUUGAGAGCAUCUUCGGAUGCAGAGGCGGCAGCCUUCGGUGGCGCGAUAGCGCCAACGUUCUCAACUAUGACACGCAAAACGCGUGCUCCGUUGAAUGGAGUUUAUCAUG

Variants of: B1
Assay: polymerase ribozyme fitness, log enrichment relative to wild type (log ratio); higher = more active; in vitro selection for triplet polymerase activity
Outline: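 One round of in vitro selection, in triplicate, was applied to PCR-built, transcribed mutant libraries of each subunit of a heterodimeric triplet polymerase ribozyme. The steps were annealing with a biotinylated primer, partner subunit and triplets, incubation frozen at −7 °C, gel excision of extended constructs, streptavidin-bead capture and RT-PCR. Fitness is the logarithm, base 2, of genotype enrichment over wild-type enrichment from inverse-variance-weighted replicate averages of Illumina-sequenced inputs and outputs, keeping genotypes with ≥10 input reads and ≥1 read per output.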

Variant | polymerase ribozyme fitness (log ratio)
C5G C32U G50C C96A C99U U127A | ≤ -4.2
C5A A66G G83A C87U A113G G124A U127C | ≤ -4.2
C5A C27G C54U A73G G83A G88C | ≤ -4.2
C5A A49G C96A C103A A142C G152U | ≤ -4.2
C5A C87U | -0.502
C5A C87A | ≤ -4.2
C5U A37U C69U C95U | -1.02
C5A A26U A52G G86A G88C A113U G141A | ≤ -4.2
C5G U144C A150C | ≤ -4.2
C5G A30G A91U A120G | ≤ -4.2
C5G A24C U31A C79G G84A U111A C118G | ≤ -4.2
C5A C76U G84U C125U G141U | -3.64
C5G C14G A47C C57U G80A C132A | ≤ -4.2
C5A U9C C85A | -2.68
C5G A23U C85U C99G A106U | ≤ -4.2
C5G G70U C87A A119U | ≤ -4.2
C5G G74A U77G | ≤ -4.2
C5G A20U G34U C95G | ≤ -4.2
C5G G25C A29C U53C G70C C96U G133A | ≤ -4.2
C5U A16U A26C C85G A122U | ≤ -4.2
C5A A91G G92U C96U A121U U134C | ≤ -4.2
C5G C96U | -0.763
C5A C8G G50C A52G G62A G74U G86C C116U | ≤ -4.2
C5G A19U U77G C93A G136C U151C | ≤ -4.2

Variant | polymerase ribozyme fitness (log ratio)
C5A C8G C14U C96G C131G | ≤ -4.2
C5G C14G U15A G46C A91U C95G U145C | ≤ -4.2
C5G C87A G128A | ≤ -4.2
C5G U53A G94A C125A U139C A142C | ≤ -4.2
C5G G50A G58C G84C C108U | ≤ -4.2
C5A A37U C75A C87G | ≤ -4.2
C5G C35U C75U G86C A113U A142G | ≤ -4.2
C5U C18U C27U C76A C79A C87U C99U A107C A142U U146A | ≤ -4.2
C5A U44A A73U C79U C85U G126U | ≤ -4.2
C5A U6G G46A U56A U82C C93A A107G C125U G136U | ≤ -4.2
C5G A110C | ≤ -4.2
C5G C8A C27U A49C U56A G94A C95G U109G | ≤ -4.2
C5G A20G C27A C72U A120U | ≤ -4.2
C5G G42U U53A C57G U61G G92U G126U A137G | ≤ -4.2
C5G A17C A26U A28C C125G A142U | ≤ -4.2
C5A C8U C54G U56A C95A U101G C114U C132G | ≤ -4.2
C5G A30C G81U A138C U144C | ≤ -4.2
C5G A16C A40G C63U G92U U102G U109C | ≤ -4.2
C5G A22U A60G G70A C96U | ≤ -4.2
C5U A16U C87A A106C | ≤ -4.2
C5G C35G A41G G50C A73U C79G A91U U104G | ≤ -4.2
C5G C27G G68A G86C A98C G133U G141U | ≤ -4.2
C5G A89G C96U U135G | ≤ -4.2
C5U A17G A49G U53G C85A A122C G141C | ≤ -4.2

Variant | polymerase ribozyme fitness (log ratio)
C5G A19U A91G A113G | ≤ -4.2
C5U A23G C32A C57G G59A C87G C95A U146A | ≤ -4.2
C5G A19U U31A C96U U102G G140A U145G | ≤ -4.2
C5G C10G C18U A29U C57U C93A U146G | ≤ -4.2
C5G A30G C36U A49G U56G C87A | ≤ -4.2
C5A C10U U13A A17G A40U C76A | ≤ -4.2
C5G U53G C54A C96U U135A | -3.79
C5A A40G U45A U56G C63A A64U A91G | ≤ -4.2
C5A G94U C95A C123A U135C | -3.89
C5G U44G C57A U148A | ≤ -4.2
C5G G50A A52G C76A C114G | ≤ -4.2
C5A C93U C105U C149G | -3.96
C5U A12U A17C G50U G80C C93A C99A C125A | ≤ -4.2
C5G C32G C72U A73G A91G A119U G141A | ≤ -4.2
C5G C18A A20C C93G U101G C131G | ≤ -4.2
C5G U9A A37C A52C U56A G84U U135A A150G | ≤ -4.2
C5U A39G C87G G94A U148G | ≤ -4.2
C5A U9G C93G C103A C108G A113G A137G | ≤ -4.2
C5G U13A G50U A73U G84A U109G | ≤ -4.2
C5G C38U U45A C103A G128A | ≤ -4.2
C5G C10G A12U A21U A37G A47G C54A G92C A107C C114A U139C G140A U146G | ≤ -4.2
C5U A19G U77A C95U | ≤ -4.2
C5G C32U G84U | -3.82
C5G A23C G68C G81C G83C U101G C118U G141U | ≤ -4.2

Variant | polymerase ribozyme fitness (log ratio)
C5G A147C | -0.562
C5A C8A A60C C76A C85A | ≤ -4.2
C5G G50U A107C A115G G124A G136A | ≤ -4.2
C5U C10G C32U A52C U55G G88A U101G | ≤ -4.2
C5G A17C A30U U55A G58U C69U C95U | ≤ -4.2
C5G G58A A60G G88A C108U G126U | ≤ -4.2
C5U A16U A17U G84A C108A | ≤ -4.2
C5U A64C G84A A122G G124U U144G U151A | ≤ -4.2
C5G C54U A64C C96G A110G G112C G133U C149A | ≤ -4.2
C5G A23G A49U U77G G86A A137G | ≤ -4.2
C5G A30C C36A C79U C93A C105G U134C G143A | ≤ -4.2
C5A A28G A29U C51U G92A A120U | ≤ -4.2
C5A A37U | -0.964
C5U C8G A12G A19U U55G C87A C96G A147C | ≤ -4.2
C5G C57G A66C C85U C118U A138U | ≤ -4.2
C5G G136A | 0.0107
C5A U13G U53A C93G | ≤ -4.2
C5G A29U C32A C79G C85G C132U A147U | ≤ -4.2
C5G G25U G48C G59C C93A C114U G117U | ≤ -4.2
C5G A26U G58C U101A U135A | ≤ -4.2
C5A G11U A21C A22U A23G A49U U53G A73G C85U C93A C105G A106U A110U G136A | ≤ -4.2
C5G A12G C87A G92A | ≤ -4.2
C5G C87A G133U U145C | ≤ -4.2
C5A A137G U144A A150U | ≤ -4.2

Variant | polymerase ribozyme fitness (log ratio)
C5A G58A C69U G81C A89U G92A U151A | ≤ -4.2
C5U A21G A24C A30U G84U | ≤ -4.2
C5G A26U U56A C85G C108A | ≤ -4.2
C5G U44A G50A G71A C87G C108G A113C G124A | ≤ -4.2
C5G G11A C54U U61G U82A C96A G126U U130G U135G | ≤ -4.2
C5G G25C A39U U53A | ≤ -4.2
C5A A91U A138C U144G C149G | ≤ -4.2
C5A G71U G80A G84A G100U U104C G143U A150G | ≤ -4.2
C5A G34A G67A G71A C95G C149A | ≤ -4.2
C5A U45G C85U A115U G141U | -3.86
C5U A17U C51U U56A C69G U148G | ≤ -4.2
C5G C18A A23G C54G G67A C93G C99G | ≤ -4.2
C5G G50U G74A C76G G83C C95G C96U A142C | ≤ -4.2
C5G U6C G25A U53A G67C C108U U127G | ≤ -4.2
C5G C57A A60C U90G C96A G126A G141C | ≤ -4.2
C5G A16G A20G C63A C72G G92U A110G | ≤ -4.2
C5G G46A G58C A60U G92A C93U A120U A121U A138U | ≤ -4.2
C5U C14G C85U C93G A138G | ≤ -4.2
C5A C14G A37U A52C C85G C99U G140U | ≤ -4.2
C5G U77A G94U G140C G152A | ≤ -4.2
C5G A60C U61A C85A G86U U148A | ≤ -4.2
C5G U6C A26U A66G G86U C87A G88C A137C G141A U144A | ≤ -4.2
C5A A52U C54A U55A C76U C87G | ≤ -4.2
C5A C27U G50C C54U C95U A110C C129U | ≤ -4.2

Variant | polymerase ribozyme fitness (log ratio)
C5A A37C A47C C79U C85U G126C U135A A138G | ≤ -4.2
C5U C10G A16G A30C G59A C87U G126C | ≤ -4.2
C5G C132U U146G | -3.69
C5A U55G G68C | ≤ -4.2
C5G C32A C57G U82G G84A C87U U127G | ≤ -4.2
C5G A16U C43G C93G A106U A107U | ≤ -4.2
C5G C14U G68U G84A U151G | ≤ -4.2
C5G G80U G83A U90G C96A C105G | ≤ -4.2
C5G U13A | -1.14
C5A C69A C93A U102C | ≤ -4.2
C5U A23U C43U U55A C87A C99U | ≤ -4.2
C5A A29C G71A C96G C116U U139C | ≤ -4.2
C5G A28U A40C A41C C79G G94U C96A A142U G143U | ≤ -4.2
C5G G25U U55A C93A A98G U145C A147C | ≤ -4.2
C5U A16C C51U | -1.73
C5G A22U A30U C63A C95G A122U G133U | ≤ -4.2
C5G G71A C76G C96U C103G C132U A137C | ≤ -4.2
C5A C8U U15C A22U A23U U53G G58C A107G | ≤ -4.2
C5G G50C C95U U139A | ≤ -4.2
C5A A26G A52G U78A C96U A98U | ≤ -4.2
C5A A47C A49C G83C A120G | ≤ -4.2
C5G A17G C38U U61C G68U | ≤ -4.2
C5A C10U G48C C75U U77C C93G A122U A150C | ≤ -4.2
C5U A28U G48A G70C C85U U139C | ≤ -4.2

Variant | polymerase ribozyme fitness (log ratio)
C5G U33G C79A G84A G88A C108A C116A G143U | ≤ -4.2
C5U A49C U78G A97G G133A U135A U146C | ≤ -4.2
C5U C10G U45A G58A G67A U135A | ≤ -4.2
C5A C10G A29U C57G G59C G84C | ≤ -4.2
C5A A113U | -2.74
C5G A12G G83A G94A G141C | -4.19
C5G A16G C35U C63A C85U | -1.82
C5A G48A C63A C87G C105A A113G C125U C129G A150U | ≤ -4.2
C5A A41C C54U C85A C103A G117A G133C A137U | ≤ -4.2
C5G A66G G71A C85U C87G C125G | ≤ -4.2
C5G A23C G81C G84A C95A | ≤ -4.2
C5G U31A C54U G67C A110U A121G | ≤ -4.2
C5G A23C A66G C69U A91G C105G A120U | ≤ -4.2
C5G U55G C85U C99A | -2.86
C5U A17C U82A G86U G94U U148A | ≤ -4.2
C5A A64U | ≤ -4.2
C5G A47C A73G C93G A142G | ≤ -4.2
C5G G62A G84A U90C G140C U151G | ≤ -4.2
C5G C10G C54U C85A C93U C96G A98G | ≤ -4.2
C5A G84A A89C G128A U144C | ≤ -4.2
C5U A17G A30U G86U U148G | ≤ -4.2
C5G U6A C32G U77A C87G C114U | ≤ -4.2
C5A C93U C108A C125A | ≤ -4.2
